According to ChEMBL document CHEMBL4888484, “Replenishing the malaria drug discovery pipeline: Screening and hit evaluation of the MMV Hit Generation Library 1 (HGL1) against asexual blood stage Plasmodium falciparum ,using a nano luciferase reporter read-out” (2022):
The whole screen tested about 150,000 compounds, of which about 540 (0.36%) showed an effect of 50% or more. The list shows a part of the results.

Test system: Plasmodium falciparum
Experiment: Primary screen in NF54 nanoGlo assay, in single point, at 2uM, 72h; a lower Z score goes with more inhibition
Type: functional, Erythrocyte
Details: timepoint 72 hour

SMILES | % Inhibition [%] | Z score
Nc1c(-c2cccnc2)nc2ccccn12 | -14 | 2.09
CCC(CC)(NC(=O)COc1ccc(C)cc1C)C(F)(F)F | -9 | 1.39
CCN1CCN(Cc2cc(C)cc(CN(C)CCn3ccnc3)c2C)CC1 | -12 | 1.49
COCCc1nc(-c2cc3nc(C)cc(C)n3n2)n(C2CCCCC2)n1 | -6 | 0.85
COc1ccc(-n2nc(C(=O)N3CCOCC3)c(=O)n(Cc3ccccc3Cl)c2=O)cc1OC | -5 | 0.72
CCc1ccc(-c2cc(C(F)(F)F)on2)cc1S(=O)(=O)Nc1ccc(F)cc1 | -9 | 1.46
CCCN(CC(=O)Nc1cc(N2CCN(C(=O)NC(C)C)CC2)ccc1Cl)C(=O)c1ccccc1Cl | -5 | 0.83
CCn1nnc(C)c1C(=O)N[C@H]1CC(C)(C)Oc2ccccc21 | -6 | 0.73
O=C(O)CCc1cc2n(n1)CCN(Cc1ccc3oc4ccccc4c3c1)C2 | -11 | 1.87
COC12NC(=O)N(C)C1(OC)C(=O)N(C)C(=O)N2C (stereo not given) | -11 | 1.34
Cc1ccccc1CN(C(=O)C1CCCC1)c1ccc(CC(=O)Nc2ccc(F)cc2)cc1 | -11 | 1.51
CC(=O)N1CCC(Oc2ccc(Cl)cc2C(=O)N(C)Cc2nccs2)CC1 | -10 | 1.79
CN=C(NCCC1=CCCCC1)N(C)C | -15 | 2.87
O=C(Nc1ccc(-n2cc(Br)cn2)nc1)c1ccc2ncsc2c1 | -14 | 1.83
CCN1CCN(C(=O)CCc2ccc3ccccc3c2O)CC1=O | -11 | 1.82
CC(C)c1[nH]ccc1C(=O)N[C@H]1COc2cc(F)c(Br)cc21 | -3 | 0.4
CCN(CC1CC1)c1nnc(-c2ccccn2)n1C[C@H]1CCOC1 | -2 | 0.31
Cn1cccc1C(=O)NC[C@H]1CCc2cccnc21 | -4 | 0.47
CCc1nc([C@@H]2CCCN2CCN2CCOCC2)no1 | 6 | -0.76
Cc1nnc(-c2nnc(NCC(C)C)c3ccccc23)o1 | -14 | 1.61
CCc1cc(C(=O)N2CC[C@@]3(CCCN(CC4CC4)C3=O)C2)on1 | 7 | -1.23
CC[C@H](NC(=O)c1cccn1C1CC1)c1ncccc1C | -3 | 0.38

SMILES | % Inhibition [%] | Z score
CC(=O)N(CCCN1CCOCC1)[C@H]1CCN(S(=O)(=O)c2ccc(F)c(F)c2)C1 | 2 | -0.17
CC(Cc1csc2ccccc12)NC(=O)C1CCOC1 (stereo not given) | -8 | 0.88
CCn1cc(-c2ccncc2)cc1C(=O)NC1CCCCC1 | -15 | 2.44
Cc1cc(C(=O)NC2CC(C)(F)C2)co1 (stereo not given) | -5 | 0.58
CN1C[C@@H](NS(=O)(=O)c2cccc3nsnc23)CC1=O | -4 | 0.51
Cc1cc(NC(=O)[C@H](C)S(=O)(=O)Cc2ccc(F)cc2)no1 | -2 | 0.14
Cc1cccc(CN2CCC(F)(C(=O)N3CCCC3)CC2)c1 | -3 | 0.57
COC(=O)CC1(NS(=O)(=O)c2ccc(C(F)F)cc2)CCCC1 | 3 | -0.4
CC(C)[C@H](O)C(C)(C)CNC(=O)Nc1ccccc1-n1ccnn1 | 11 | -1.1
Cc1ccccc1-c1nnc(-c2ccc(-c3ccccc3)cc2)n1-c1ccccc1 | 1 | -0.11
CC(C)N1C[C@@H](NC(=O)c2cc(C(F)F)n(C)n2)CC1=O | 0 | 0.08
Cc1cc(C)c2c(c1)CCCN2S(=O)(=O)c1cccc2cccnc12 | 2 | -0.23
COc1ccc(CNC(=O)c2[nH]c(C)c(S(=O)(=O)N3CCC(C)CC3)c2C)cc1 | -18 | 2.37
O=C(Nc1cccc(C(F)(F)F)c1)c1cnc(O[C@H]2CCOC2)c(Cl)c1 | 4 | -0.68
CC(C)[C@H](C)N(Cc1ccco1)C(=O)CCn1nnc2ccccc21 | -4 | 0.48
O=C(Cc1csc(NC(=O)c2ccco2)n1)Nc1ccc2c(c1)OCO2 | -22 | 2.9
COc1ccc(S(=O)(=O)Oc2cc(CN(C(=O)c3ccco3)C(C)C)ccc2OC)cc1 | -2 | 0.36
CO[C@H]1CCCOC12CCN(C(=O)c1ccc(-n3cnnc3)nc1)CC2 | 0 | -0.05
Cc1ccc(NC(=O)[C@@H]2CCCN2S(=O)(=O)c2ccc3c(c2)NC(=O)CO3)cc1F | -5 | 0.74
CC[C@H](C)NC(=O)NCc1nc(C(=O)N2CCC(C)CC2)c(C)o1 | -2 | 0.34
CS(=O)(=O)c1ccc(NC(=O)c2cc(O)ncn2)cc1 | 1 | -0.18
Cc1cccc(C[C@H](C)NC(=O)C(=O)c2cccnc2)n1 | -11 | 2.23

SMILES | % Inhibition [%] | Z score
CC1=NN=C(c2ccccc2)Cc2c1c(C)n(Cc1ccccc1)c2-c1ccccc1 | 31 | -3.46
CNC(=O)[C@@H]1CCCN1C(=O)CNC(=O)c1cc(C)nc(OC)c1 | -14 | 1.31
CCOc1cc(NCc2nnc3ccccn23)ncn1 | -10 | 1.03
C[C@H]1CCc2onc(C(=O)N3CCN(c4ccc(F)cc4)CC3)c2C1 | -17 | 3.16
COc1ccc2nc(NCc3cc(C#CCO)cs3)sc2c1 | -11 | 1.39
Cc1cc(C(=O)CN2CCC[C@H](C(=O)NCC(F)(F)F)C2)c(C)[nH]1 | -4 | 0.37
CCc1nc(CN(CC#N)S(=O)(=O)N(C)C)no1 | -7 | 1.4
CC(C)(C)c1nc(CS(C)(=O)=O)no1 | 3 | -0.66
COc1ccc(F)cc1S(=O)(=O)N1Cc2cnc(N3CCOCC3)nc2C1 | -15 | 2.77
CCC1Oc2cc(S(=O)(=O)N3CCCC(C(=O)N4CCC(C)CC4)C3)c(C)cc2NC1=O (stereo not given) | 3 | -0.59
CNC(=O)c1noc(CNC2CCN(c3ccc4c(c3)CCC4)CC2)n1 | -2 | 0.36
CCCNC(=O)N1CCC(O)(c2csc(CN3CCc4ccccc4C3)n2)CC1 | 28 | -3.21
O=C1CN(Cc2ccc3c(c2)OCO3)[C@H]2CS(=O)(=O)C[C@H]2N1c1ccc(Cl)cc1 | 1 | -0.15
O=C(Nc1cc(Br)cc(C(F)(F)F)c1)c1ccnnc1 | -2 | 0.3
FC(F)(F)c1nccc(OCc2noc(C3CC3)n2)n1 | -9 | 1.25
CC(C)n1nccc1CN1C(=O)c2ccccc2C1=O | -4 | 0.64
O=C(Nc1cccc2[nH]cnc12)c1ccc(F)cc1F | -7 | 1.36
O=C(NCc1ccccc1)N1CCC[C@H](Cn2cnc3cccnc32)C1 | -12 | 1.77
Cc1ccc([C@@H](C)NC(=O)Nc2cn(C)nn2)cc1F | 1 | -0.23
CCN1CC(=O)N[C@H]2CN(C(=O)CCn3cccn3)CC[C@@H]2OCc2cccc(c2)Oc2cc(OC(C)C)cc(c2)C1=O | 6 | -0.85
CCCCOC1CC(N(C)C(=O)c2snnc2C)C1(C)C (stereo not given) | -13 | 2.43
O=C(COc1ccc(Cl)cc1Cl)N1CC(c2nc(-c3cccnc3)no2)C1 | 9 | -1.63

SMILES | % Inhibition [%] | Z score
O=C(NCc1ccc2c(c1)OCO2)c1cnccn1 | -10 | 1.23
O=C(Nc1ccc(Br)cc1)c1cccn2c(-c3ccc(F)cc3)nnc12 | -4 | 0.58
Cc1cc(C)c(C(=O)O)c(OC2CCC2)n1 | -5 | 0.57
Cc1nc(C(=O)NCCc2nccs2)c(-c2ccccc2Cl)s1 | -2 | 0.36
O=C(CN1CCCCCC1=O)N1CCCCC1 | -5 | 0.67
O=C(Cc1ccc(Cl)cc1Cl)N1CC[S+]([O-])CC1 | 2 | -0.29
CCN(CC)CCOCCOc1ccc(Br)cc1C | -2 | 0.33
O=C(Cc1ccc(F)cc1)NC1CCCCCCC1 | -2 | 0.34
COC(=O)N1CCn2nc(CN(C)Cc3nc4ccc(F)cc4[nH]3)cc2C1 | 1 | -0.17
Cc1cccc(-c2nc3ccccc3o2)c1OS(=O)(=O)c1ccc(F)cc1 | -4 | 0.52
Cc1ccc(-c2nc(NC(=O)c3cc(C)on3)sc2C)cc1 | 1 | -0.14
Cc1cnc(C)n1C[C@H]1CCN(S(=O)(=O)c2ccccc2)C1 | -3 | 0.44
Cc1cc(-c2ccccc2)nc(CN2CCS(=O)(=O)CC2)n1 | -2 | 0.35
NCCC(=O)N(Cc1ccccc1OC(F)(F)F)C1CCCC1 | 10 | -1.18
O=C(N[C@H]1CC(=O)N(CC2CCCCC2)C1)c1ccsc1 | -14 | 1.79
Cc1noc(C)c1C(=O)Nc1sc(-c2ccccc2)c(C)c1C(=O)N1CCOCC1 | -12 | 1.7
COc1ccc(CNC(=O)N2CC[C@H](CC(=O)N(C)Cc3ccccc3)C2)cc1 | -9 | 1.37
CC[C@@H](C(=O)N(CC)Cc1ccc(C)o1)n1cccn1 | 1 | -0.13
COCCN1C[C@@H](Cc2cc(C)c3ccc(C)c(C)c3n2)CC1=O | -12 | 1.28
